Consider 84 molecules from PMC4336329 (PLoS ONE, 2015).

Out of some 310,000 compounds screened, about 14,000 (4.5%) showed an effect of 50% or more. The effect is printed as a negative number. Some of the results follow.
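Further: peak tail current of the secondary pulse compared with the same well before compound.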

This assay deals with human ether-à-go-go-related gene (hERG) potassium channel (human, UniProt Q12809). Kind of assay: primary screen, population patch clamp on CHO cells stably expressing hERG.
Sequence of human ether-à-go-go-related gene (hERG) potassium channel (Q12809 whole entry, looked up): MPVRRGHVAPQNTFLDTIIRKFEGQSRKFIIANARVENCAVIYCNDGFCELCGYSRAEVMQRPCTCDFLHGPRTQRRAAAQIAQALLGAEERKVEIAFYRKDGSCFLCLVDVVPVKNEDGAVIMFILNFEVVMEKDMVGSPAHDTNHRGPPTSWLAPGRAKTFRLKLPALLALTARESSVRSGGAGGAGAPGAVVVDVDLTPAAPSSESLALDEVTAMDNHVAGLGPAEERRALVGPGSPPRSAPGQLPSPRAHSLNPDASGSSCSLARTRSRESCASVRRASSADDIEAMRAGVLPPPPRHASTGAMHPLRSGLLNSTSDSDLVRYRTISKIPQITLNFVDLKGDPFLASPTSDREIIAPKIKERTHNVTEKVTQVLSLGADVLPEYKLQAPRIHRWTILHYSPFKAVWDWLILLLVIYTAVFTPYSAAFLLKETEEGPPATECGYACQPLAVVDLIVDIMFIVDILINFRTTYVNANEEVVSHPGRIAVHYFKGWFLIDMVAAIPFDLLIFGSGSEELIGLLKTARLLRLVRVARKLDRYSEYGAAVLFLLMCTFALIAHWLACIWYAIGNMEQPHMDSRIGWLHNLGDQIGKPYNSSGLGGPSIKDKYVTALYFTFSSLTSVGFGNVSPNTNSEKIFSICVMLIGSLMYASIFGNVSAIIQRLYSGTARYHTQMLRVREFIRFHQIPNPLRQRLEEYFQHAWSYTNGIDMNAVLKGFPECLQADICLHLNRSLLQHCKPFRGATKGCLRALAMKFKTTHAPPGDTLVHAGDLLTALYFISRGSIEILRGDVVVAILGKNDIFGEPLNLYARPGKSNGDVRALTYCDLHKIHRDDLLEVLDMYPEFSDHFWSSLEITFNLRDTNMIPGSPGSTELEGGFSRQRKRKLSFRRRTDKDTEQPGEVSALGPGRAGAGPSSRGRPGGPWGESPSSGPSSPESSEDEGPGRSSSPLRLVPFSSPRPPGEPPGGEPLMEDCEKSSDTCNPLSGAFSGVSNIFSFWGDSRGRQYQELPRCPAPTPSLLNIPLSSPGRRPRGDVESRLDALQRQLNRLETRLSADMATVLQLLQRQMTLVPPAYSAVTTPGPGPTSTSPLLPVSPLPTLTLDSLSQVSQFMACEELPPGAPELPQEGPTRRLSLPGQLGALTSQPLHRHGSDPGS
In the case of `C=CCn1c(=O)c2ccccc2n2c(Sc3nnnn3-c3ccccc3)nnc12`, the “hERG current change (%, negative = inhibition) at 10uM” value amounted to 0.641%.
In the case of `O=C(NC(Cc1ccc(F)cc1)C(=O)O)c1ccccc1` (stereo not drawn), the “hERG current change (%, negative = inhibition) at 10uM” value is given as 13.8%.
For `CN1/C(=C/C(=O)C2CCC2)Sc2ccccc21`, the “hERG current change (%, negative = inhibition) at 10uM” value was -7.2%.
Regarding `COc1cc(/C=N/NC(=O)CN(CCc2ccccc2)S(=O)(=O)c2ccc(NC(C)=O)cc2)cc(OC)c1OC`, the “hERG current change (%, negative = inhibition) at 10uM” value is -3.41%.
For `O=C(Cc1n[nH]c(=O)[nH]c1=O)N/N=C/c1cccc(Cl)c1`, the “hERG current change (%, negative = inhibition) at 10uM” value worked out at 7.46%.
As to `CCN(C(=O)c1ccc(C)c(Br)c1)c1ccccc1`, the “hERG current change (%, negative = inhibition) at 10uM” value is given as -20.5%.
Under `O=C1C2ON(c3ccccc3)C(c3ccncc3)C2C(=O)N1c1ccccc1` (stereo not drawn) stands -3.36%.
For `COCCn1cnc2c1c(=O)n(Cc1ccc(C#N)cc1)c(=O)n2Cc1ccccc1`, the “hERG current change (%, negative = inhibition) at 10uM” value is reported as -34.3%.
In the case of `CCN(CC)S(=O)(=O)c1ccc2[nH]c(=O)cc(C(=O)Nc3ccc(C)cc3)c2c1`, the “hERG current change (%, negative = inhibition) at 10uM” value is recorded as 3.73%.
As to `O=C(c1ccco1)N1CCN(C(=S)Nc2ccccc2C(F)(F)F)CC1`, the “hERG current change (%, negative = inhibition) at 10uM” value is 2.09%.
`COc1ccc(-c2ccc(-c3nnc(-c4cc(OC)ccc4OC)o3)cc2)cc1`: the “hERG current change (%, negative = inhibition) at 10uM” value is given as 3.88%.
For the molecule `Cc1ccc(C(=O)COC(=O)CNC(=O)C(c2ccccc2)c2ccccc2)cc1[N+](=O)[O-]`, the “hERG current change (%, negative = inhibition) at 10uM” value was found to be 4.33%.
Consider `Cc1nc2ccccc2c(=O)n1NC(=O)c1ccccc1Cl`, for which the “hERG current change (%, negative = inhibition) at 10uM” value is 7.14%.
Then `COc1cc(CCC(=O)Nc2ccc(S(=O)(=O)NC3=NCCCCC3)cc2)cc(OC)c1OC`, with 9.3%; and `CCC(C(=O)NCc1ccccc1OC)c1ccccc1` (stereo not drawn), with -13.1%; and `COc1ccc(-c2nc(C)sc2CC(=O)O)cc1`, with 5.41%.
Under `COc1ccc(C(=O)CCC(=O)N2CCN(c3cc(C)ccc3C)CC2)cc1` stands -11.5%; under `Cn1nc(CC(=O)Nc2ccc3c(c2)OCCO3)c2ccccc2c1=O`, 3.93%.
Take `CCCn1nnnc1NCc1cccc(OC)c1OC`: the “hERG current change (%, negative = inhibition) at 10uM” value was determined as 5.88%.
Then `COc1cc(N2CCCC2)c(OC)cc1/C=C(/C#N)c1cccc(Br)c1`, with 16.1%; and `COC(=O)Cc1cc(OC)c(OC)cc1Cc1cc(OC)c(OC)cc1CC(=O)OC`, with 22.6%.
For the molecule `CCn1c(COc2ccc(C)cc2)nnc1SCC(=O)Nc1ccc(S(N)(=O)=O)cc1`, the “hERG current change (%, negative = inhibition) at 10uM” value is listed as -2.76%.
`COc1ccc(N2CCN(c3oc(-c4ccc(OC)c(OC)c4)nc3C#N)CC2)cc1`: the “hERG current change (%, negative = inhibition) at 10uM” value is listed as -17%.
For the molecule `CCOc1ccc(C(C(=O)NC2CCCC2)N(C(=O)c2snc(C(N)=O)c2N)c2cccc(O)c2)cc1` (stereo not drawn), the “hERG current change (%, negative = inhibition) at 10uM” value is 23.5%.
As to `Cc1ccc(S(=O)(=O)/C(C#N)=C/c2c(N3CC(C)OC(C)C3)nc3ccccn3c2=O)cc1` (stereo not drawn), the “hERG current change (%, negative = inhibition) at 10uM” value is on record as -46.3%.
Take `Cc1ccc(S(=O)(=O)N2CCC(C(=O)N[C@@H](C)C(=O)NCc3ccco3)CC2)cc1`: the “hERG current change (%, negative = inhibition) at 10uM” value was -3.8%.
Consider `Cc1cc(Sc2nccn2C)ncc1[N+](=O)[O-]`, for which the “hERG current change (%, negative = inhibition) at 10uM” value is listed as 8.24%.
As for `COc1cc(/C=N/NC(=O)c2cccnc2)ccc1OCC(=O)N1CCOCC1`, the “hERG current change (%, negative = inhibition) at 10uM” value was found to be 6.31%.
For the molecule `COc1cccc(-c2nnc(-c3ccccc3NC(=O)c3ccc(C(C)(C)C)cc3)o2)c1`, the “hERG current change (%, negative = inhibition) at 10uM” value is -6.59%.
`CCOC(=O)c1cc(C(=O)OCC)c(=O)[nH]c1N1CCCCC1`: the “hERG current change (%, negative = inhibition) at 10uM” value came to 12.2%.
Under `CCOC(=O)C1=C(CN2CC(C)CC(C)C2)NC(=O)NC1c1ccc2c(c1)OCO2` (stereo not drawn) stands -8.66%; under `Cc1cc(C(F)(F)F)n2nc(-c3cccs3)cc2n1`, 14.4%.
For the molecule `CCN(CC)S(=O)(=O)c1cc(C(=O)NCCN2CCOCC2)ccc1Cl.Cl`, the “hERG current change (%, negative = inhibition) at 10uM” value was 2.59%.
Then `CCOc1ccccc1N1CCN(C(=O)NCc2ccc(C)cc2)CC1`, with 21.7%; and `CCOC(=O)C1=C(c2ccccc2)N=c2s/c(=C\c3ccc(O)cc3)c(=O)n2C1c1cccs1` (stereo not drawn), with -2.03%; and `CCC(c1nnnn1CS(=O)(=O)c1ccc(C)cc1)N1CCC(C(N)=O)CC1.Cl` (stereo not drawn), with -12%.
For the molecule `CCOc1ccc(CNC(=O)C2CCN(c3nnc(C)c4c(C)n(-c5ccc(C)cc5)nc34)CC2)cc1`, the “hERG current change (%, negative = inhibition) at 10uM” value is -0.254%.
Then `Clc1ncccc1-c1nc2ccccc2s1`, with 24.8%.
Consider `CN(/C=C1/C(=O)CNC1=O)CCO`, for which the “hERG current change (%, negative = inhibition) at 10uM” value was 15.9%.
With `O=C(COC(=O)COc1ccc(Cl)cc1)Nc1ccc(N2CCOCC2)cc1`, the “hERG current change (%, negative = inhibition) at 10uM” value was 29.4%.
Then `CC(=O)N1CCCc2cc(S(=O)(=O)CCC(=O)N3CCN(c4cccc(C)c4)C(C)C3)ccc21` (stereo not drawn), with -9.9%.
Consider `CC(=O)Nc1nonc1-c1nc2ccccc2n1Cc1nnc(C)o1`, for which the “hERG current change (%, negative = inhibition) at 10uM” value is on record as -6.37%.
Consider `Nc1cc(-c2ccc(Cl)cc2)nn1S(=O)(=O)c1ccccc1`, for which the “hERG current change (%, negative = inhibition) at 10uM” value was 22.1%.
With `CCCS(=O)(=O)N1CCN(Cc2ccccc2C(F)(F)F)CC1.O=C(O)C(=O)O`, the “hERG current change (%, negative = inhibition) at 10uM” value is -13.9%.
For `COc1cccc(CCC(=O)N2CCC(n3nccc3NC(=O)C3CCOC3)CC2)c1` (stereo not drawn), the “hERG current change (%, negative = inhibition) at 10uM” value was determined as 14.9%.
Turning to `O=C1CCN(Cc2ccccc2)CCN1[C@H](COc1ccccc1)Cc1ccccc1`, the “hERG current change (%, negative = inhibition) at 10uM” value was -56.4%.
`CCn1c(CNc2nc3ccccc3n2C(C)C)nc2ccccc21`: the “hERG current change (%, negative = inhibition) at 10uM” value is -42.4%.
Under `Nc1nc2c(s1)COc1ccccc1-2` stands 19.2%; under `CC1(CCc2ccccc2)NC(=O)N(CC(=O)Nc2ccccc2)C1=O` (stereo not drawn), -5.5%.
Take `Cc1ccnc(NC(=O)CCNS(=O)(=O)c2ccc(C)c(C)c2)c1`: the “hERG current change (%, negative = inhibition) at 10uM” value turned out to be 3.94%.
In the case of `CCN(CC)CCN1C(=O)c2ccccc2NC1c1ccc(Br)cc1` (stereo not drawn), the “hERG current change (%, negative = inhibition) at 10uM” value is recorded as -85.7%.
Under `O=C(COC(=O)c1c2c(nc3ccccc13)CCCCC2)NCc1ccc2c(c1)OCO2` stands -9.55%; under `COc1cccc(NC(=O)c2ccc3snnc3c2)c1`, 6.81%; under `CC1=C(C(=O)Nc2ccc(CC(=O)NCc3ccc(OC(C)C)cc3)cc2)SCCO1`, 14.5%.
Turning to `Cc1cc(C)c(C(=O)COc2cccnc2[N+](=O)[O-])cc1C`, the “hERG current change (%, negative = inhibition) at 10uM” value was -4.15%.
For `COCCCNC(=O)CC1Oc2ccccc2NC1=O` (stereo not drawn), the “hERG current change (%, negative = inhibition) at 10uM” value amounted to 3.05%.
With `Cc1ccc(C)c(N2CCN(C(=O)CNS(=O)(=O)c3cccs3)CC2)c1`, the “hERG current change (%, negative = inhibition) at 10uM” value is -1.3%.
For the molecule `COc1cc(C(=O)O[C@H]2C/C(C)=C/CC[C@@]3(C)O[C@@H]3[C@H](O)[C@@H]2C(C)C)cc(OC)c1OC`, the “hERG current change (%, negative = inhibition) at 10uM” value worked out at 6.22%.
As for `O=C(Nc1ccc(Cl)c(Cl)c1)N1CC=CCC1`, the “hERG current change (%, negative = inhibition) at 10uM” value turned out to be 2.3%.
In the case of `Cc1c(C(=O)NCCN2C(=O)S/C(=C\c3cccnc3)C2=O)cccc1[N+](=O)[O-]`, the “hERG current change (%, negative = inhibition) at 10uM” value was -45.1%.
Then `CCN(CC)C(=O)COc1ccc2oc(C)c(C(=O)OC(C)C)c2c1`, with -4.12%.
`COC(=O)C1=C(C(=O)OC)[C@@H]2N(C)c3ccc(OC)cc3[C@@]23C[C@@H](C(=O)OC)N(S(=O)(=O)c2ccc([N+](=O)[O-])cc2)C3=N1`: the “hERG current change (%, negative = inhibition) at 10uM” value stood at 2.57%.
Under `Cc1cc(C)cc(-n2ccnc2SCC(=O)Nc2ccc3c(c2)OCCO3)c1` stands -14.2%; under `COc1ccccc1N1CCN(CCCCOc2cccc3ccccc23)CC1.Cl`, -32.8%; under `CCN(CC)S(=O)(=O)c1ccc(NN)nc1`, 13.4%.
Regarding `CNC(=O)CCSc1ccc(C)cc1`, the “hERG current change (%, negative = inhibition) at 10uM” value is given as 24.8%.
In the case of `CN=C(C)/C(C(=O)OC)=C(/O)c1ccccc1F`, the “hERG current change (%, negative = inhibition) at 10uM” value stood at 3.33%.
`O=C(c1ccco1)N1CCN(C(=O)c2cnn3c2NC(c2cccs2)CC3C(F)(F)F)CC1` (stereo not drawn): the “hERG current change (%, negative = inhibition) at 10uM” value is -14%.
Then `CCOC(=O)CN(C(=O)COc1nc(C)cc(C)c1C#N)c1ccc(F)cc1`, with -44.8%.
With `CC(C)(C)OC(=O)[C@H](Cc1ccccc1)NC(=O)c1[nH]cnc1C(=O)Nc1ccc(Cl)cc1`, the “hERG current change (%, negative = inhibition) at 10uM” value stood at 12.7%.
For the molecule `O=C(NC(=S)Nc1cccc(Cl)c1)c1cncc(Br)c1`, the “hERG current change (%, negative = inhibition) at 10uM” value is on record as 10.5%.
`COc1ccc(NC(=O)CC2C(=O)N(c3ccc(OC)cc3)C(=S)N2NC(=O)c2cccc(F)c2)cc1` (stereo not drawn): the “hERG current change (%, negative = inhibition) at 10uM” value was found to be 4.58%.
Then `CC(=O)Nc1ccc(NC(=O)CSc2nc3c([nH]c4ccccc43)c(=O)n2-c2ccccc2F)cc1`, with 16.8%.
With `CCn1c(SCCOc2ccc(OC)cc2)nnc1C(CO)NC(=O)c1ccc(OC)cc1` (stereo not drawn), the “hERG current change (%, negative = inhibition) at 10uM” value is -14.8%.
With `O=[N+]([O-])c1cc(S(=O)(=O)N2CCCC2)ccc1OCc1ccccc1`, the “hERG current change (%, negative = inhibition) at 10uM” value is recorded as 12.1%.
Turning to `CCOc1ccccc1NC(=O)N1CCCN(c2ncccc2C#N)CC1`, the “hERG current change (%, negative = inhibition) at 10uM” value is -25.9%.
Consider `CCOc1ccc(-c2nnc(N3CCOCC3)c3ccccc23)cc1`, for which the “hERG current change (%, negative = inhibition) at 10uM” value was -69.6%.
As to `Cc1ccc(-c2nc(NC(=O)c3nn(C)cc3[N+](=O)[O-])sc2C)cc1C`, the “hERG current change (%, negative = inhibition) at 10uM” value is reported as -9.15%.
For `O=C(O)c1cccc(NC(=S)NC(=O)c2ccncc2)c1`, the “hERG current change (%, negative = inhibition) at 10uM” value is -2.75%.
Under `Nc1nc(N)c(Cc2ccc(Cl)cc2Cl)c(N)n1` stands -3.41%; under `CC(=O)Nc1ccc(S(=O)(=O)Nc2nnc(Cc3ccc(Cl)cc3)s2)cc1`, 20%.
In the case of `Cc1nn(C)c(C)c1CCC(=O)N1CCCC(N2CCN(c3ccc(F)cc3)CC2)C1` (stereo not drawn), the “hERG current change (%, negative = inhibition) at 10uM” value is recorded as -12.5%.
For `O=C(CSc1nnc(-c2ccccn2)o1)Nc1ccccc1F`, the “hERG current change (%, negative = inhibition) at 10uM” value came out at 10.1%.
On to `CC(C)N1C(=S)SC(C)(C)C1n1oc(=O)n(-c2cccc(Cl)c2)c1=O` (stereo not drawn), for which the “hERG current change (%, negative = inhibition) at 10uM” value came to 15%.
